Results taken from patent US20110319597A1 (CAPHALON AUSTRALIA, published 2011).

B1: TNFα dAb Fc variant L73Q (Fc fusion, name in Kabat numbering)
chain: DIQMTQSPSSLSASVGDRVTITCRASQAIDSYLHWYQQKPGKAPKLLIYSASNLETGVPSRFSGSGSGTDFTQTISSLLPEDFATYYCQQVVWRPFTFGQGTKVEIKRV[human IgG1 Fc with changes left out]
B2: TNFα dAb Fc variant L73S (Fc fusion, name in Kabat numbering)
chain: DIQMTQSPSSLSASVGDRVTITCRASQAIDSYLHWYQQKPGKAPKLLIYSASNLETGVPSRFSGSGSGTDFTSTISSLLPEDFATYYCQQVVWRPFTFGQGTKVEIKRV[human IgG1 Fc with changes left out]
B3: TNFα dAb Fc variant L73Y (Fc fusion, name in Kabat numbering)
chain: DIQMTQSPSSLSASVGDRVTITCRASQAIDSYLHWYQQKPGKAPKLLIYSASNLETGVPSRFSGSGSGTDFTYTISSLLPEDFATYYCQQVVWRPFTFGQGTKVEIKRV[human IgG1 Fc with changes left out]
B4: TNFα dAb Fc variant L78A (Fc fusion, name in Kabat numbering)
chain: DIQMTQSPSSLSASVGDRVTITCRASQAIDSYLHWYQQKPGKAPKLLIYSASNLETGVPSRFSGSGSGTDFTLTISSALPEDFATYYCQQVVWRPFTFGQGTKVEIKRV[human IgG1 Fc with changes left out]
B5: TNFα dAb Fc variant L78D (Fc fusion, name in Kabat numbering)
chain: DIQMTQSPSSLSASVGDRVTITCRASQAIDSYLHWYQQKPGKAPKLLIYSASNLETGVPSRFSGSGSGTDFTLTISSDLPEDFATYYCQQVVWRPFTFGQGTKVEIKRV[human IgG1 Fc with changes left out]
B6: TNFα dAb Fc variant L78H (Fc fusion, name in Kabat numbering)
chain: DIQMTQSPSSLSASVGDRVTITCRASQAIDSYLHWYQQKPGKAPKLLIYSASNLETGVPSRFSGSGSGTDFTLTISSHLPEDFATYYCQQVVWRPFTFGQGTKVEIKRV[human IgG1 Fc with changes left out]
B7: TNFα dAb Fc variant L78K (Fc fusion, name in Kabat numbering)
chain: DIQMTQSPSSLSASVGDRVTITCRASQAIDSYLHWYQQKPGKAPKLLIYSASNLETGVPSRFSGSGSGTDFTLTISSKLPEDFATYYCQQVVWRPFTFGQGTKVEIKRV[human IgG1 Fc with changes left out]
B8: TNFα dAb Fc variant L78P (Fc fusion, name in Kabat numbering)
chain: DIQMTQSPSSLSASVGDRVTITCRASQAIDSYLHWYQQKPGKAPKLLIYSASNLETGVPSRFSGSGSGTDFTLTISSPLPEDFATYYCQQVVWRPFTFGQGTKVEIKRV[human IgG1 Fc with changes left out]
B9: TNFα dAb Fc variant L78Q (Fc fusion, name in Kabat numbering)
chain: DIQMTQSPSSLSASVGDRVTITCRASQAIDSYLHWYQQKPGKAPKLLIYSASNLETGVPSRFSGSGSGTDFTLTISSQLPEDFATYYCQQVVWRPFTFGQGTKVEIKRV[human IgG1 Fc with changes left out]
B10: TNFα dAb Fc variant L78S (Fc fusion, name in Kabat numbering)
chain: DIQMTQSPSSLSASVGDRVTITCRASQAIDSYLHWYQQKPGKAPKLLIYSASNLETGVPSRFSGSGSGTDFTLTISSSLPEDFATYYCQQVVWRPFTFGQGTKVEIKRV[human IgG1 Fc with changes left out]
B11: TNFα dAb Fc variant L78Y (Fc fusion, name in Kabat numbering)
chain: DIQMTQSPSSLSASVGDRVTITCRASQAIDSYLHWYQQKPGKAPKLLIYSASNLETGVPSRFSGSGSGTDFTLTISSYLPEDFATYYCQQVVWRPFTFGQGTKVEIKRV[human IgG1 Fc with changes left out]
B12: TNFα dAb Fc variant L79G (Fc fusion, name in Kabat numbering)
chain: DIQMTQSPSSLSASVGDRVTITCRASQAIDSYLHWYQQKPGKAPKLLIYSASNLETGVPSRFSGSGSGTDFTLTISSLGPEDFATYYCQQVVWRPFTFGQGTKVEIKRV[human IgG1 Fc with changes left out]
B13: TNFα dAb Fc variant L79P (Fc fusion, name in Kabat numbering)
chain: DIQMTQSPSSLSASVGDRVTITCRASQAIDSYLHWYQQKPGKAPKLLIYSASNLETGVPSRFSGSGSGTDFTLTISSLPPEDFATYYCQQVVWRPFTFGQGTKVEIKRV[human IgG1 Fc with changes left out]
B14: TNFα dAb Fc variant L79Q (Fc fusion, name in Kabat numbering)
chain: DIQMTQSPSSLSASVGDRVTITCRASQAIDSYLHWYQQKPGKAPKLLIYSASNLETGVPSRFSGSGSGTDFTLTISSLQPEDFATYYCQQVVWRPFTFGQGTKVEIKRV[human IgG1 Fc with changes left out]
B15: TNFα dAb Fc variant P44H (Fc fusion, name in Kabat numbering)
chain: DIQMTQSPSSLSASVGDRVTITCRASQAIDSYLHWYQQKPGKAHKLLIYSASNLETGVPSRFSGSGSGTDFTLTISSLLPEDFATYYCQQVVWRPFTFGQGTKVEIKRV[human IgG1 Fc with changes left out]
B16: TNFα dAb Fc variant P44K (Fc fusion, name in Kabat numbering)
chain: DIQMTQSPSSLSASVGDRVTITCRASQAIDSYLHWYQQKPGKAKKLLIYSASNLETGVPSRFSGSGSGTDFTLTISSLLPEDFATYYCQQVVWRPFTFGQGTKVEIKRV[human IgG1 Fc with changes left out]
B17: TNFα dAb Fc variant P44Q (Fc fusion, name in Kabat numbering)
chain: DIQMTQSPSSLSASVGDRVTITCRASQAIDSYLHWYQQKPGKAQKLLIYSASNLETGVPSRFSGSGSGTDFTLTISSLLPEDFATYYCQQVVWRPFTFGQGTKVEIKRV[human IgG1 Fc with changes left out]
B18: TNFα dAb Fc variant P80A (Fc fusion, name in Kabat numbering)
chain: DIQMTQSPSSLSASVGDRVTITCRASQAIDSYLHWYQQKPGKAPKLLIYSASNLETGVPSRFSGSGSGTDFTLTISSLLAEDFATYYCQQVVWRPFTFGQGTKVEIKRV[human IgG1 Fc with changes left out]
B19: TNFα dAb Fc variant P80D (Fc fusion, name in Kabat numbering)
chain: DIQMTQSPSSLSASVGDRVTITCRASQAIDSYLHWYQQKPGKAPKLLIYSASNLETGVPSRFSGSGSGTDFTLTISSLLDEDFATYYCQQVVWRPFTFGQGTKVEIKRV[human IgG1 Fc with changes left out]
B20: TNFα dAb Fc variant P80H (Fc fusion, name in Kabat numbering)
chain: DIQMTQSPSSLSASVGDRVTITCRASQAIDSYLHWYQQKPGKAPKLLIYSASNLETGVPSRFSGSGSGTDFTLTISSLLHEDFATYYCQQVVWRPFTFGQGTKVEIKRV[human IgG1 Fc with changes left out]
B21: TNFα dAb Fc variant P80K (Fc fusion, name in Kabat numbering)
chain: DIQMTQSPSSLSASVGDRVTITCRASQAIDSYLHWYQQKPGKAPKLLIYSASNLETGVPSRFSGSGSGTDFTLTISSLLKEDFATYYCQQVVWRPFTFGQGTKVEIKRV[human IgG1 Fc with changes left out]
B22: TNFα dAb Fc variant P80L (Fc fusion, name in Kabat numbering)
chain: DIQMTQSPSSLSASVGDRVTITCRASQAIDSYLHWYQQKPGKAPKLLIYSASNLETGVPSRFSGSGSGTDFTLTISSLLLEDFATYYCQQVVWRPFTFGQGTKVEIKRV[human IgG1 Fc with changes left out]
B23: TNFα dAb Fc variant P80Q (Fc fusion, name in Kabat numbering)
chain: DIQMTQSPSSLSASVGDRVTITCRASQAIDSYLHWYQQKPGKAPKLLIYSASNLETGVPSRFSGSGSGTDFTLTISSLLQEDFATYYCQQVVWRPFTFGQGTKVEIKRV[human IgG1 Fc with changes left out]
B24: TNFα dAb Fc variant P80S (Fc fusion, name in Kabat numbering)
chain: DIQMTQSPSSLSASVGDRVTITCRASQAIDSYLHWYQQKPGKAPKLLIYSASNLETGVPSRFSGSGSGTDFTLTISSLLSEDFATYYCQQVVWRPFTFGQGTKVEIKRV[human IgG1 Fc with changes left out]
B25: TNFα dAb Fc variant P80Y (Fc fusion, name in Kabat numbering)
chain: DIQMTQSPSSLSASVGDRVTITCRASQAIDSYLHWYQQKPGKAPKLLIYSASNLETGVPSRFSGSGSGTDFTLTISSLLYEDFATYYCQQVVWRPFTFGQGTKVEIKRV[human IgG1 Fc with changes left out]
B26: TNFα dAb Fc variant Q37A (Fc fusion, name in Kabat numbering)
chain: DIQMTQSPSSLSASVGDRVTITCRASQAIDSYLHWYAQKPGKAPKLLIYSASNLETGVPSRFSGSGSGTDFTLTISSLLPEDFATYYCQQVVWRPFTFGQGTKVEIKRV[human IgG1 Fc with changes left out]
B27: TNFα dAb Fc variant Q37D (Fc fusion, name in Kabat numbering)
chain: DIQMTQSPSSLSASVGDRVTITCRASQAIDSYLHWYDQKPGKAPKLLIYSASNLETGVPSRFSGSGSGTDFTLTISSLLPEDFATYYCQQVVWRPFTFGQGTKVEIKRV[human IgG1 Fc with changes left out]
B28: TNFα dAb Fc variant Q37L (Fc fusion, name in Kabat numbering)
chain: DIQMTQSPSSLSASVGDRVTITCRASQAIDSYLHWYLQKPGKAPKLLIYSASNLETGVPSRFSGSGSGTDFTLTISSLLPEDFATYYCQQVVWRPFTFGQGTKVEIKRV[human IgG1 Fc with changes left out]
B29: TNFα dAb Fc variant Q37P (Fc fusion, name in Kabat numbering)
chain: DIQMTQSPSSLSASVGDRVTITCRASQAIDSYLHWYPQKPGKAPKLLIYSASNLETGVPSRFSGSGSGTDFTLTISSLLPEDFATYYCQQVVWRPFTFGQGTKVEIKRV[human IgG1 Fc with changes left out]
B30: TNFα dAb Fc variant Q37S (Fc fusion, name in Kabat numbering)
chain: DIQMTQSPSSLSASVGDRVTITCRASQAIDSYLHWYSQKPGKAPKLLIYSASNLETGVPSRFSGSGSGTDFTLTISSLLPEDFATYYCQQVVWRPFTFGQGTKVEIKRV[human IgG1 Fc with changes left out]
B31: TNFα dAb Fc variant Q37Y (Fc fusion, name in Kabat numbering)
chain: DIQMTQSPSSLSASVGDRVTITCRASQAIDSYLHWYYQKPGKAPKLLIYSASNLETGVPSRFSGSGSGTDFTLTISSLLPEDFATYYCQQVVWRPFTFGQGTKVEIKRV[human IgG1 Fc with changes left out]

The binders below were run against T1, recombinant human TNFα (CytoLab) (human, UniProt P01375 fragment) (assay: ELISA on coated human TNFα).
T1 construct: coated on the ELISA plate at 1 µg/ml; also called Tumour necrosis factor alpha
T1 sequence (P01375 77-233 limits assumed): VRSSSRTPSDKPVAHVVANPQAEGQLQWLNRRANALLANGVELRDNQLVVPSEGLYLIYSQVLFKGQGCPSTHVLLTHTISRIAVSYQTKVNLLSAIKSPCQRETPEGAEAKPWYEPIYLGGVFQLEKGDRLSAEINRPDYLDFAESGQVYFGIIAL

First: B1
Second: B2
The “A450 (AU)” value of the first is higher: 0.155 AU for the first, 0.152 AU for the second.

Going from B3 to B4, the “A450 (AU)” value rises from 0.204 AU to 0.847 AU.

First: B5
Second: B6
The “A450 (AU)” value of the first is lower: 0.176 AU for the first, 0.21 AU for the second.

Going from B7 to B8, the “A450 (AU)” value falls from 0.489 AU to 0.369 AU.

Going from B9 to B10, the “A450 (AU)” value rises from 0.273 AU to 0.61 AU.

First: B11
Second: B12
The “A450 (AU)” value of the first is lower: 0.379 AU for the first, 1.4 AU for the second.

First: B13
Second: B14
The “A450 (AU)” value of the first is lower: 0.246 AU for the first, 1.32 AU for the second.

Going from B15 to B16, the “A450 (AU)” value falls from 0.309 AU to 0.187 AU.

Compared with B17, B18 is higher in “A450 (AU)” value: 0.182 AU for the first, 0.947 AU for the second.

Going from B19 to B20, the “A450 (AU)” value rises from 0.741 AU to 0.77 AU.

First: B21
Second: B22
The “A450 (AU)” value of the first is lower: 0.782 AU for the first, 0.794 AU for the second.

First: B23
Second: B24
The “A450 (AU)” value of the first is lower: 0.764 AU for the first, 0.91 AU for the second.

Compared with B25, B26 is higher in “A450 (AU)” value: 0.766 AU for the first, 0.877 AU for the second.

First: B27
Second: B28
The “A450 (AU)” value of the first is lower: 0.251 AU for the first, 0.885 AU for the second.

Compared with B29, B30 is higher in “A450 (AU)” value: 0.294 AU for the first, 0.962 AU for the second.

B31 was tested, and the “A450 (AU)” value was 0.549 AU.
